Laboratory results: PMC4336329 (PLoS ONE, 2015)
Hit rate of the full screen: of about 310,000 compounds, about 14,000 (4.5%) showed an effect of 50% or more. Effects have a minus sign here. This is one part of the list.

Biological target: human ether-à-go-go-related gene (hERG) potassium channel (human, UniProt Q12809)
Test: primary screen, population patch clamp on CHO cells stably expressing hERG
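Also: peak tail current of the secondary pulse compared with the same well before compound.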

Chain of human ether-à-go-go-related gene (hERG) potassium channel (Q12809 whole entry, looked up): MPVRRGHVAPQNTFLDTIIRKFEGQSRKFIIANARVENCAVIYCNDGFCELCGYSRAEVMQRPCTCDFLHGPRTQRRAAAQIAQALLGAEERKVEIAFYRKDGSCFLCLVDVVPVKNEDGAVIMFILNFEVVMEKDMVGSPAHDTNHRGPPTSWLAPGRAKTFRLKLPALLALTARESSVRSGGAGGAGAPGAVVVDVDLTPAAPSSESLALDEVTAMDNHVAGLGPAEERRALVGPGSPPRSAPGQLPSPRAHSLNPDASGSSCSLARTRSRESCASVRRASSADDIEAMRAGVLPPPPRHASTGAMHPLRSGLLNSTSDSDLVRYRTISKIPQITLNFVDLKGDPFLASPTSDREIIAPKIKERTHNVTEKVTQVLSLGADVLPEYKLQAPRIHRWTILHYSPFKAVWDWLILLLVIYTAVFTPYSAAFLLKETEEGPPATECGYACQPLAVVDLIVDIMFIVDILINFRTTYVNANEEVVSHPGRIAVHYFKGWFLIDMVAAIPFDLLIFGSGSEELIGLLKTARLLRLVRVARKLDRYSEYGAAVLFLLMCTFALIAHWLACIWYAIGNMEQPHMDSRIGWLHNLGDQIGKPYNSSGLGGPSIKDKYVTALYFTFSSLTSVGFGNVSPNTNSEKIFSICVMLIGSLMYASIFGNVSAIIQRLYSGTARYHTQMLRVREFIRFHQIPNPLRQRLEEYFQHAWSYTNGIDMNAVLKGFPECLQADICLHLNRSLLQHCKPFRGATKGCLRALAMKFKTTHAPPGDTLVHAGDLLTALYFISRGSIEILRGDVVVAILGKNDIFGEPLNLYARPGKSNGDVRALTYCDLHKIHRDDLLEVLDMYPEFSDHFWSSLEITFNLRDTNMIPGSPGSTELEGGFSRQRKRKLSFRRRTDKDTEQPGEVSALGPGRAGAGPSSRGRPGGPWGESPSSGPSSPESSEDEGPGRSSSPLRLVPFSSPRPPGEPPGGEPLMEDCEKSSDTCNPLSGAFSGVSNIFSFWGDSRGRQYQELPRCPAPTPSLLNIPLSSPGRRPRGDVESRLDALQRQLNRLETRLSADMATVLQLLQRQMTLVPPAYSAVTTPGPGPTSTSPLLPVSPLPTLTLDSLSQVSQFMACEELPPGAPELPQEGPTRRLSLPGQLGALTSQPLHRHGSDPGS

| SMILES | hERG current change (%, negative = inhibition) at 10uM [%] |
| --- | --- |
| COc1ccccc1-c1nc(C(N)=O)c2[nH]c(=O)n(-c3cccc(C)c3)c2n1 | -20.9 |
| COc1ccc(S(=O)(=O)Nc2ccccc2C(=O)NC(C)C)cc1OC | 13.3 |
| CCOc1ccc2c(CC)cc(=O)oc2c1OCC | -18.9 |
| Cc1cc(C(=O)OCC(=O)c2ccc3c(c2)NC(=O)CO3)c2ccccc2n1 | 18.8 |
| O=C(CCC(=O)c1ccc(F)cc1)Nc1ccccc1Cl | 1.71 |
| CN(C)S(=O)(=O)N1CCC(Oc2ccc(C(=O)N3CCCCCCC3)cc2)CC1 | 10.9 |
| COc1cc(OC)c(-n2c(C)cc(C=O)c2C)cc1Cl | -15.4 |
| CC(C)Cn1c2nc3ccccc3nc2c2c(=O)n(CCN3CCOCC3)cnc21 | -48.1 |
| CCCCNC(=O)CSc1nc2ccsc2c(=O)n1CCCC(=O)NCCc1ccc(S(N)(=O)=O)cc1 | 22.2 |
| CCOC(=O)N1CCN(C(=O)CN(c2ccc(OC)cc2)S(C)(=O)=O)CC1 | -0.984 |
| O=C(CN1C(=O)c2ccccc2C1=O)NC1CCCCC1 | 10.5 |
| COC(=O)c1sccc1NC(=S)N1CCN(c2ccc(F)cc2)CC1 | -8.43 |
| O=C(c1ccc(NS(=O)(=O)c2cccs2)cc1)N1CCOCC1 | 14.4 |
| CC1=C(C(=O)NCc2ccccc2)C(c2cccs2)NC(=S)N1 (centres unmarked) | -23.7 |
| COCCn1c(N)c(C(=O)OCc2ccccc2)c2nc3ccccc3nc21 | -38.3 |
| Cc1ccc(C)c2nc3sc(C(=O)N4CCCc5ccccc54)c(N)c3cc12 | -0.132 |
| CCCCc1ccc(NC(=O)NCc2ccccn2)cc1 | -1.75 |
| Cc1ccc2c(CN3CCN(S(=O)(=O)c4ccccc4C(F)(F)F)CC3)cc(=O)oc2c1 | -57.3 |
| O=C(NC1CCN(CCc2c[nH]c3ccccc23)CC1)c1ccccc1 | -71.7 |
| O=c1cc(CNC2CCCCC2)c2ccccc2[nH]1 | 10.3 |
| CCOc1ccccc1NC(=O)CSc1c(C)n[nH]c1C | 10.1 |
| COC(=O)C1=CO[C@@H](OC2OC(CO)C(O)C(O)C2O)[C@@H]2C(CO)=CC[C@H]12 (some centres unmarked) | 24.6 |

| SMILES | hERG current change (%, negative = inhibition) at 10uM [%] |
| --- | --- |
| CC(=O)N(c1ccccc1)C(C)c1nc(C#N)c(C#N)nc1C (centres unmarked) | 10.3 |
| CC(=O)c1ccc(S(=O)(=O)NCCc2csc(-c3cccnc3)n2)cc1 | 3.2 |
| COc1ccc(CN2C=C3C(=O)C(C)(OC(=O)C4CCCC4)C(=O)C=C3C=C2c2ccsc2)cc1 (centres unmarked) | -64.4 |
| CC(C)N(Cc1nc(-c2ccc3c(c2)OCO3)no1)CC1CCC(=O)N1 (centres unmarked) | 11.7 |
| O=C1CC(N2CCOCC2)C(=O)N1c1cc(Cl)cc(Cl)c1 (centres unmarked) | 8.98 |
| CCc1ccc(CNC(=O)C2CC(=O)N(CCc3ccc(C)cc3)C2)cc1 (centres unmarked) | -27.2 |
| CCN(c1ccccc1)S(=O)(=O)c1cccc(C(=O)NCc2ccncc2)c1 | -28.1 |
| CC(=O)c1ccc(NC(=O)CSc2nc(=O)cc(N)n2-c2ccccc2)cc1 | -36.6 |
| O=C1N=C(N2CCCC2)S/C1=C\c1cccc(Br)c1 | -35.8 |
| CCN(CC)S(=O)(=O)c1ccc(O)c(C(=O)OCC(=O)Nc2ccc(OC(F)(F)F)cc2)c1 | -9.19 |
| COc1ccc(NC(=O)CN2CCN(c3ccc(F)cc3)CC2)cc1Cl | -5.96 |
| COc1ccccc1C(=O)NCCC(=O)Nc1nc2ccccc2[nH]1 | -12.6 |
| COc1ccc(C(=O)N2N=C3CC(C)(C)OCC3C2c2ccccc2)cc1 (centres unmarked) | -24.1 |
| COc1ccc(CN=C2NC(=O)CC(C(=O)Nc3ccccc3C)S2)cc1 (centres unmarked) | -15 |
| CCCS(=O)(=O)c1c(S(=O)(=O)CCC)c2c(C)cccn2c1C(=O)N/N=C/c1cc(O)cc(O)c1 | 9.21 |
| c1ccc(CCCNc2ncnc3nc[nH]c23)cc1 | -10.4 |
| Cc1nn(Cc2ccc(Cl)cc2Cl)c(Cl)c1/C=C/C(=O)OCC(=O)NCC(F)(F)F | 1.04 |
| CCCC(=O)Nc1cccc(-c2nc3ccccc3c(=O)o2)c1 | 11.2 |
| CCN1CCN(c2ccc(NC(=O)c3cccc(F)c3)cc2Cl)CC1 | -75.2 |
| COc1ccc(OC)c(C2=NS(=O)(=O)N(C)C(C(=O)NCc3ccco3)=C2)c1 | -17.4 |
| CCOc1ccc(C2=NNC(c3cccs3)=Nc3ccc(OC)cc32)cc1 | -16.6 |
| Cc1ccc2nc(-c3ccc(N4C(=O)CC(N5CCN(CCO)CC5)C4=O)cc3)sc2c1 (centres unmarked) | -3.5 |
